For some assays here: The name of at least one read-out is uncertain. For some assays here: At least one structure is not confirmed: it was looked up by name or label, or the drawing left a doubt. Peptide text beside a SMILES is read from it.
Columns and labels:
[1] = system: E. coli MG1655; type: cell-based
[2] = system: E. coli strain 13673 (O157); type: cell-based
[3] = system: E. coli strain 13671 (O157:H? gur+); type: cell-based
[4] = system: E. coli strain 11547 (O157:H7); type: cell-based
[5] = system: E. coli strain 6322 (EMG2 (K12, λF+)); type: cell-based; further: key: '+' indicates that the organism tested was capable of utilizing the carbon source listed; '−' indicates that the organism tested was not capable of utilizing the carbon source listed; 'w' indicates weak positive reactions
[6] = system: E. coli strain 13675 (O157); type: cell-based
[7] = system: E. coli strain 14444 (MG1655 xylA); type: cell-based
[8] = system: E. coli strain 14445 (MG1655 himA); type: cell-based; further: key: '+' indicates that the organism tested was capable of utilizing the carbon source listed; '−' indicates that the organism tested was not capable of utilizing the carbon source listed; 'w' indicates weak positive reactions
[9] = system: E. coli strain 6320 (W3110); type: cell-based; further: key: '+' indicates that the organism tested was capable of utilizing the carbon source listed; '−' indicates that the organism tested was not capable of utilizing the carbon source listed; 'w' indicates weak positive reactions
[10] = system: E. coli strain 14443 (MG1655 (FB426)); type: cell-based; further: key: '+' indicates that the organism tested was capable of utilizing the carbon source listed; '−' indicates that the organism tested was not capable of utilizing the carbon source listed; 'w' indicates weak positive reactions
[11] = system: E. coli strain 6321 (MG1655); type: cell-based
[12] = system: T. harzianum DAOM 190830; type: cell-based, Trichoderma harzianum
[13] = system: E. coli 287 (ATCC #11775); type: cell-based

Row | Compound | suitability as sulfur source (growth, purple color) [1] | carbon source utilization [2] | carbon source utilization [3] | carbon source utilization [4] | carbon source utilization [5] | carbon source utilization [6] | carbon source utilization [7] | carbon source utilization [8] | carbon source utilization [9] | carbon source utilization [10] | carbon source utilization [11] | carbon source utilization result [12] | carbon source utilization result [13]
1 | NC(N)=S [thiourea] | not suitable |  |  |  |  |  |  |  |  |  |  |  | 
2 | O=C(O)/C=C/C(=O)O [Fumaric acid] |  | + | + | + | + | + | + | + | + | + | + |  | 
3 | Cc1cn([C@H]2C[C@H](O)[C@@H](CO)O2)c(=O)[nH]c1=O [Thymidine] |  | + | + | + | + | + | + | + | + | + | + |  | 
4 | NC(=O)CC[C@H](N)C(=O)O [L-glutamine] |  | + | + | + | + | + | + | + | − | + | − |  | 
5 | CC(=O)C(=O)O [Pyruvic acid] |  | + | + | + | + | + | + | + | + | + | + |  | 
6 | O=C(O)CC(O)(CC(=O)O)C(=O)O [Citric acid] |  | − | − | − | − | − | − | − | − | − | − |  | 
7 | C[C@@H](N)C(=O)O [D-alanine] |  | + | + | + | + | + | + | + | + | + | + |  | 
8 | NCCc1ccc(O)cc1 [Tyramine] |  | − | − | − | − | − | − | − | − | − | − |  | 
9 | C[C@H](N)C(=O)NCC(=O)O [L-alanyl-glycine] (H-Ala-Gly-OH) |  | + | + | + | + | + | + | + | + | + | + |  | 
10 | O=C(O)CO [Glycolic acid] |  | − | − | − | + | − | + | − | + | + | + |  | 
11 | OC[C@@H](O)[C@@H](O)[C@@H](O)CO [Adonitol] |  | − | − | − | − | − | − | − | − | − | − |  | 
12 | O=C[C@H](O)[C@@H](O)[C@H](O)CO [D-xylose] |  | + | + | + | + | + | − | + | + | + | + |  | 
13 | O=C(O)CC(Br)C(=O)O (centres unmarked) [Bromo succinic acid] |  | + | + | + | + | + | + | + | + | + | + |  | 
14 | OCC(O)CO [Glycerol] |  | + | + | + | + | + | − | − | + | − | + |  | 
15 | Nc1ncnc2c1ncn2[C@H]1C[C@H](O)[C@@H](CO)O1 [2′-deoxy-adenosine] |  | + | + | + | + | + | + | + | + | + | + |  | 
16 | O=C(O)[C@@H](O)[C@@H](O)[C@H](O)[C@@H](O)C(=O)O [D-saccharic acid] |  | − | − | − | + | − | + | + | + | + | + |  | 
17 | O=C[C@H](O)[C@@H](O)[C@H](O)[C@H](O)C(=O)O [D-glucuronic acid] |  | + | + | + | + | + | + | + | + | + | + |  | 
18 | O=C(O)[C@H](O)[C@@H](O)[C@H](O)[C@H](O)CO [D-gluconic acid] |  | + | + | + | + | + | + | + | + | + | + |  | 
19 | COC(=O)CCC(=O)O [Mono-methyl succinate] |  | + | + | + | + | + | + | + | + | + | + | positive | positive
20 | O=C[C@@H](O)[C@@H](O)[C@H](O)[C@H](O)CO [D-mannose] |  | + | + | + | + | + | + | + | + | + | + |  | 
21 | O=C[C@H](O)[C@@H](O)[C@H](O[C@@H]1O[C@H](CO)[C@@H](O)[C@H](O)[C@H]1O)[C@H](O)CO [Cellobiose] |  | − | − | − | − | − | − | − | − | − | − |  | 
